Where “and” joins values, the source holds several entries; their conditions need not be identical. Identical values can stand only once. Screen size: about 350,000 compounds; about 31,000 (8.9%) were called active. This list was built around the results that the source calls inconclusive (neither active nor inactive); the mix of calls is not that of the screen. Calls come from the whole dose curve; as a rule, active = well fitted inhibition curve with a large enough effect; inconclusive = small, poorly fitted or top-dose-only effect; inactive = no such curve, though single readings can be large or run the other way. Potencies of inconclusive entries are doubtful fits and often do not repeat. Where a structure was tested more than once in an assay, its records may differ in their call.
target: Histone-lysine N-methyltransferase EHMT2 (Homo sapiens) (UniProt Q96KQ7); experiment: qHTS Assay for Inhibitors of Histone Lysine Methyltransferase G9a; conditions: G9a H3K9 monomethylation, AlphaScreen, 2 h; activity, negative = inhibition: at 59 µM (top of the series) unless noted; note: nearly all actives have a fitted effect of over 75% in size
Procedure, shortened: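 AlphaScreen read-out: biotin-H3K9 peptide (500 nM) methylation by 20 nM enzyme with 20 uM SAM, 2 h at room temperature after 15 min compound preincubation; anti-monomethyl H3K9 antibody plus donor/acceptor beads, 10 min dark.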
% is set by controls: 0 for no effect and ±100 for the full control effect; potency is the fitted concentration of half-maximal effect; tags give direction and shape of the fitted curve.

Sequence of UniProt Q96KQ7 (Q96KQ7 whole entry, looked up): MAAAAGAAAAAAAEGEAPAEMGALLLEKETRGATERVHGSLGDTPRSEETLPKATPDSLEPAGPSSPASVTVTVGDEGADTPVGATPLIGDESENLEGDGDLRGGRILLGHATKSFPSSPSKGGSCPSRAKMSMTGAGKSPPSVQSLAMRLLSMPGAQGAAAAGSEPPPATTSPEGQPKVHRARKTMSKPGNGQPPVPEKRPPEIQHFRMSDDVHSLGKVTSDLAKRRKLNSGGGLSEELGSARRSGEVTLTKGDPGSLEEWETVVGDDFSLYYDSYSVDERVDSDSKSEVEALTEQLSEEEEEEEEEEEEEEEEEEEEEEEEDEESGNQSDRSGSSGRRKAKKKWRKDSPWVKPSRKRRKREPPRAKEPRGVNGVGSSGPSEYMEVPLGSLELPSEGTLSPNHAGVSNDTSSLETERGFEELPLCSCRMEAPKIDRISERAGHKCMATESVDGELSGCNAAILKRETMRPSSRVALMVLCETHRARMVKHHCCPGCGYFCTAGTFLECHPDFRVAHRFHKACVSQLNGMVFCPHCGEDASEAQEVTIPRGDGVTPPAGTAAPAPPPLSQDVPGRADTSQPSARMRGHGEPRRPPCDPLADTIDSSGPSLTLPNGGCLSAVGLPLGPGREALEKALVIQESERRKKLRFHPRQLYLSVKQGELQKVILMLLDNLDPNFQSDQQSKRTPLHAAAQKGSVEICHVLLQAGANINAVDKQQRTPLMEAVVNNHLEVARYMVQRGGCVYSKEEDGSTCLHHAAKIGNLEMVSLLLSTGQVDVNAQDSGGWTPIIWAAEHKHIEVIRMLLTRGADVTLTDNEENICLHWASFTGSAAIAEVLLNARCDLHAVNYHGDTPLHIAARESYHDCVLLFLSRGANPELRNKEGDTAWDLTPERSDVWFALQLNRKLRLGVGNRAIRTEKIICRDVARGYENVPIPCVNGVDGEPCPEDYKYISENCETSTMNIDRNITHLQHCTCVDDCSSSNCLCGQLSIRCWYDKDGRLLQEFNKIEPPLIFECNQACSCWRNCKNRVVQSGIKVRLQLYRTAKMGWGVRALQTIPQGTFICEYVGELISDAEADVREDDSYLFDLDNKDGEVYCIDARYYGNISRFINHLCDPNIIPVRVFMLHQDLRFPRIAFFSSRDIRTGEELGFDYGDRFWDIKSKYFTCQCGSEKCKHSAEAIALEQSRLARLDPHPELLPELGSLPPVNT

Structure (SMILES)	Potency	activity, negative = inhibition
Cc1ccc(NC(=O)N2CCC(NC(=O)c3cccc(C)c3)CC2)cc1	active: 7.94 µM	–
COc1cccc(C(=O)NCc2cn3cccc(C)c3n2)c1	inconclusive: 31.6 µM [inhibitor, single point]	–
CCCSc1oc(-c2ccco2)nc1S(=O)(=O)c1ccc(C)cc1	inconclusive: 89.1 µM [inhibitor, single point]	–
CN(C)c1ccc(N/C=C/C(=O)C(C)(C)C)cc1	inconclusive: 1.58 µM [inhibitor, full curve, poor fit]	–
Cc1ccc(NC(=O)N2CCN3CCCCC3C2)cc1C (configuration not stated)	inactive	–
CCCCNc1ccc2nsnc2c1[N+](=O)[O-]	inconclusive: 89.1 µM [inhibitor, single point]	–
CCC1CCCCN1CCCNC(=O)c1csc2c1CCCCC2 (configuration not stated)	inactive	–
Cn1cccc1C(=O)NC(=O)CSc1nc2ccccc2s1	inconclusive: 3.55 µM [inhibitor, single point]	–
O=C(Cc1ccccc1Cl)Nc1ccc(S(=O)(=O)N2CCOCC2)cc1	inconclusive: 50.1 µM [inhibitor, partial curve, poor fit]	–
COc1ccc2c(c1OC)C(=O)OC2Nc1nc(-c2ccc([N+](=O)[O-])cc2)cs1 (configuration not stated)	inconclusive: 70.8 µM [inhibitor, single point]	–
Cc1ccc(-c2nc(-c3ccncc3)no2)cc1	inactive	–
COc1ccc2c(c1)c1c(c(=O)n(-c3cc(Cl)ccc3C)c(=O)n1Cc1ccc(F)cc1)n2C	inactive	–
CC(=O)Nc1ccc(S(=O)(=O)Nc2ccc(S(=O)(=O)Nc3nc(C)cc(C)n3)cc2)cc1	inconclusive: 89.1 µM [inhibitor, single point]	–
CCOc1ccc(NC(=O)c2nn(C)c3c2COc2ccccc2-3)cc1	inconclusive: 2.82 µM [inhibitor, full curve, poor fit]	–
CCOc1ccc(S(=O)(=O)Nc2cc3c(C(=O)OCc4ccccc4)c(C)oc3c3ccccc23)cc1	inconclusive: 50.1 µM [inhibitor, partial curve, poor fit]	–
O=C(CCSc1nc(-c2ccc3c(c2)OCO3)cc(C(F)(F)F)n1)NCc1ccccc1	inactive	–
COc1ccccc1CNCC(O)Cn1c2ccccc2c2ccccc21 (configuration not stated)	inactive	–
CC(C)c1cc(=O)[nH]c(N2CCN(Cc3ccc4c(c3)OCO4)CC2)n1	–	inactive: -1.84% [at 0.501 µM]
CC1=NS(=O)(=O)c2cc(Cl)ccc2N1	inactive and active: 2.82 µM	–
COc1ccc(-c2csc(NC(=S)NC(=O)c3ccco3)n2)cc1	inconclusive: 79.4 µM [inhibitor, single point]	–
COc1cc2c(C(=O)O)c(C)n(-c3ccccc3)c2c2ccccc12	inconclusive: 11.2 µM [inhibitor, partial curve, poor fit]	–
CN1CCN(Cc2oc(CO)cc(=O)c2O)CC1	inconclusive: 28.2 µM [inhibitor, single point]	–
COc1ccc(-c2[nH]c(-c3ccc(C)cc3)nc2SCC(=O)NCC2CCCO2)cc1 (configuration not stated)	inconclusive: 11.2 µM [inhibitor, partial curve, poor fit]	–
COc1cccc2c(=O)n(CC(=O)N3CCCc4ccccc43)ccc12	inconclusive: 89.1 µM [inhibitor, single point]	–

Structure (SMILES)	Potency	activity, negative = inhibition
Cc1ccc(C(=O)NCCNC(=O)c2ccco2)cn1	inactive	–
CCCOC(=O)c1c(-c2ccccc2)c(-c2ccccc2)nn(C)c1=O	inconclusive: 39.8 µM [inhibitor, single point]	–
Cc1ccc(S(=O)(=O)Nc2ccc(O)c(Sc3ncn[nH]3)c2)cc1	inconclusive: 50.1 µM [inhibitor, partial curve, poor fit]	–
CCCC(C)c1nnc(NC(=O)CCS(=O)(=O)Cc2ccccc2)s1 (configuration not stated)	active: 25.1 µM	–
Cc1cc(OCc2cc(C(=O)NCc3csc(C(C)C)n3)no2)cc(C)c1Cl	inconclusive: 89.1 µM [inhibitor, single point]	–
O=c1oc2ccccc2c(NCc2ccccc2)c1[N+](=O)[O-]	inconclusive: 31.6 µM [inhibitor, single point]	–
Cc1cc(NC(=O)CCS(=O)(=O)c2ccc3c(c2)NC(=O)C(C)S3)ccc1Br (configuration not stated)	inactive	–
CCSc1ncc(Cl)c(C(=O)Nc2cc(C)ccc2C)n1	inactive	–
COc1cnc(-c2ccccn2)nc1Sc1ccc(F)cc1	inactive	–
COc1cc(/C=N\Nc2nc3ccccc3o2)cc(OC)c1OC	inactive	–
Cc1nnc(C)c2c(C)n(-c3ccccc3N)c(C)c12	inactive	–
Cc1[nH]nc(N=Cc2c(O)n(C)c(=O)n(C)c2=O)c1-c1ccccc1	inconclusive: 79.4 µM [inhibitor, partial curve]	–
CCOc1ccc(NC(=O)CN(C)C(=O)c2cc(-c3ccc(OC)cc3)nc3ccccc23)cc1OCC	active: 50.1 µM	–
COC(=O)c1cc(NC(=O)Cc2ccc(OC)c(OC)c2)cc(C(=O)OC)c1	inactive	–
COC(=O)c1ccc(/C(O)=C(\C#N)c2nc3ccccc3s2)cc1	inconclusive: 44.7 µM [inhibitor, partial curve]	–
Cc1cc(C)c(S(=O)(=O)N2CCN(C(=O)C(C)Cn3cncn3)CC2)c(C)c1 (configuration not stated)	inactive	–
CCOC(=O)/C(=N/Nc1ccc(C)cc1)S(=O)(=O)c1ccc(Cl)cc1	active: 14.1 µM	–
COc1ccc(NC(=O)N2CCC3(CC2)CCN(C(=O)c2cc(C(F)(F)F)cc(C(F)(F)F)c2)CC3)cc1	–	inactive: -4.82% [at 12.7 µM]
COc1ccc(C(=O)COC(=O)c2ccc3ccccc3n2)cc1	inconclusive: 39.8 µM [inhibitor, single point]	–
Nc1nc2c(F)c(F)c(F)cc2s1	active: 17.8 µM	–
COc1ccc(-n2nc(C(=O)O)c3ccccc3c2=O)cc1	inconclusive: 0.708 µM [inhibitor, full curve, poor fit]	–
CCC(=O)Nc1ccc(S(=O)(=O)NCC2CCCO2)cc1 (configuration not stated)	inconclusive: 1.78 µM [inhibitor, partial curve, poor fit]	–
O=C(Cn1c(=O)[nH]c2ccccc2c1=O)Nc1ccc2c(c1)OCO2	inconclusive: 50.1 µM [inhibitor, single point]	–
